Structures can show the parent of a compound that is named as a salt. Where two headings read alike, the source gives them in different places. Starred links: 1 amine or outer side, 2 acyl side, 3 side chain; linkers in the order of their positions; H or OH if unused. Positions of bridges follow the written chain, without caps; N, C: chain ends. Non-standard residues stand in square brackets, D forms with d. Residues, ends and D or L forms follow the SMILES beside them. Chains are numbered I, II in the order given. Actinocin(9to1) = Cc1c2oc3c(C)ccc(C(=O)[*:1])c3nc-2c(C(=O)[*:2])c(N)c1=O; NMeV = CN[C@H](C(=O)O)C(C)C; Sar = CNCC(=O)O
Columns and labels:
[1] = tested on: CD47 deficient (CD47 KO) Jurkat T cells; details: for AC50: read-out: AC50 (μM) CD47 KO, cell viability
WT Jurkat cells = details: for AC50: read-out: AC50 (μM) WT
[2] = CD47 KO Jurkat T cells, 48 hours, 10^-9 to 10^-4 M, CellTiter-Glo
[3] = WT Jurkat cells, 48 hours, 10^-9 to 10^-4 M, CellTiter-Glo
[4] = CD47 KO Jurkat T cells, 48 hours
[5] = difference CD47 KO minus WT Jurkat cells, 48 hours
[6] = log AC50 difference CD47 KO minus WT
[7] = WT Jurkat cells, cell viability, 48 hours

`Cc1c2oc3c(C)ccc(C(=O)N[C@@H]4C(=O)N[C@H](C(C)C)C(=O)N5CCC[C@H]5C(=O)N(C)CC(=O)N(C)[C@@H](C(C)C)C(=O)O[C@@H]4C)c3nc-2c(C(=O)N[C@@H]2C(=O)N[C@H](C(C)C)C(=O)N3CCC[C@H]3C(=O)N(C)CC(=O)N(C)[C@@H](C(C)C)C(=O)O[C@@H]2C)c(N)c1=O` [Actinomycin D] (I: T[dV]P[Sar][NMeV] / II: T[dV]P[Sar][NMeV]; ester I:1-I:C, II:1-II:C; linker I:N-II:N via Actinocin(9to1)) was tested, and the “Maximal Response CD47 KO (RLU)” value [1] was 42.128 RLU, the “Δ Maximal Response CD47KO-WT” value [1] was 40.114 and the “Maximal Response WT (RLU)” value (WT Jurkat cells) was 2.014 RLU.
With `CCOC(=O)[C@H]1O[C@@H]1C(=O)N[C@@H](CC(C)C)C(=O)NCCC(C)C` [Aloxistatin] the “Maximal Response CD47 KO (RLU)” value [1, 2] was 132.797 RLU and the “Maximal Response WT (RLU)” value (WT Jurkat cells; [3]) was 104.466 RLU.
SN-38 was tested, and the “Δ LogAC50 CD47KO-WT” value [1] was 1.9, the “cytotoxicity in CD47 deficient versus wild-type Jurkat cells (FIGS. 14, 15)” value ([1]; 48 hours, increasing concentrations) was “protected” and the AC50 [1, 4] was 0.296 µM. The AC50 (WT Jurkat cells) was 0.0037 µM.
`O=C(Nc1cccc(Cl)c1)Nc1ncc(CCNc2ncnc3ccsc23)s1` [SNS-314] was tested, and the “Maximal Response CD47 KO (RLU)” value [1, 2] was 60.794 RLU and the “Maximal Response WT (RLU)” value (WT Jurkat cells; [3]) was 31.863 RLU.
For `C/C(=C\c1csc(C)n1)[C@@H]1C[C@@H]2O[C@]2(C)CCC[C@H](C)[C@H](O)[C@@H](C)C(=O)C(C)(C)[C@@H](O)CC(=O)O1` [Epothilone B], the “Maximal Response CD47 KO (RLU)” value [1] was 49.832 RLU, the “Δ Maximal Response CD47KO-WT” value [1] was 22.724 and the “Maximal Response WT (RLU)” value (WT Jurkat cells) was 27.108 RLU.
With `CC(C)c1nn(-c2c(Cl)cccc2Cl)c2nc(Cc3ccc(OCCO)cc3)[nH]c(=O)c12` [RGB-286147] the “Maximal Response CD47 KO (RLU)” value [1, 2] was 39.37 RLU, the “Δ Maximal Response CD47KO-WT” value [1, 5] was 37.595 and the “Maximal Response WT (RLU)” value (WT Jurkat cells; [3]) was 1.775 RLU.
With `COc1ccc2c(c1OC)C(=O)O[C@@H]2[C@H]1c2c(cc3c(c2OC)OCO3)CCN1C` [Noscapine] the “Maximal Response CD47 KO (RLU)” value [1, 2] was 38.52 RLU and the “Maximal Response WT (RLU)” value (WT Jurkat cells; [3]) was 10.875 RLU.
With Elactocin the “Maximal Response CD47 KO (RLU)” value [1] was 30.361 RLU, the “Δ Maximal Response CD47KO-WT” value [1] was 23.698 and the “Maximal Response WT (RLU)” value (WT Jurkat cells) was 6.663 RLU.
In the case of `CN(C)CCN(C)C(=O)c1ccc(NC(=O)Nc2ccc(-c3nc(N4CCOCC4)c4ccn(CC(F)(F)F)c4n3)cc2)cc1` [CAY10626], the “Δ LogAC50 CD47KO-WT” value [1, 6] is reported as 0.8, the AC50 [1, 4] is reported as 6.62 µM and the AC50 (WT Jurkat cells; [7]) is reported as 1.05 µM.
For `CC1(C)S[C@@H]2[C@H](NC(=O)[C@H](N)c3ccc(O)cc3)C(=O)N2[C@H]1C(=O)[O-].[Na+]` [Amoxicillin sodium], the “Maximal Response CD47 KO (RLU)” value [1, 2] was 61.467 RLU, the “Δ Maximal Response CD47KO-WT” value [1, 5] was 33.497 and the “Maximal Response WT (RLU)” value (WT Jurkat cells; [3]) was 27.97 RLU.
With `Cc1ccc(NC(=O)C2(c3ccc4c(c3)OC(F)(F)O4)CC2)nc1-c1cccc(C(=O)O)c1` [Lumacaftor] the “Maximal Response CD47 KO (RLU)” value [1, 2] was 34.976 RLU and the “Maximal Response WT (RLU)” value (WT Jurkat cells; [3]) was 4.41 RLU.
With `COc1cc2c(cc1O)CC[C@@H]1[C@@H]2CC[C@]2(C)[C@@H](O)CC[C@@H]12` [2-Methoxyestradiol] the “Maximal Response CD47 KO (RLU)” value [1, 2] was 45.435 RLU, the “Δ Maximal Response CD47KO-WT” value [1, 5] was 23.536 and the “Δ LogAC50 CD47KO-WT” value [1, 6] was 1.15. The AC50 [1, 4] was 6.62 µM, the “Maximal Response WT (RLU)” value (WT Jurkat cells; [3]) was 21.899 RLU and the AC50 (WT Jurkat cells; [7]) was 0.469 µM.
`COc1c(C)c2c(c(O)c1C/C=C(\C)CCC(=O)OCCN1CCOCC1)C(=O)OC2` [Mycophenolate mofetil] was tested, and the “Maximal Response CD47 KO (RLU)” value [1, 2] was 71.329 RLU and the “Maximal Response WT (RLU)” value (WT Jurkat cells; [3]) was 19.156 RLU.
For `CC(C)(C(=O)NCC(F)(F)C(F)(F)F)C(=O)N[C@@H]1C(=O)Nc2ccccc2-c2ccccc21` [RO-4929097], the “Δ LogAC50 CD47KO-WT” value [1, 6] was 1, the AC50 [1, 4] was 18.7 µM and the AC50 (WT Jurkat cells; [7]) was 1.87 µM.
With `C[C@@H](CN1CC(=O)NC(=O)C1)N1CC(=O)NC(=O)C1` [Dexrazoxane hydrochloride] the “Maximal Response CD47 KO (RLU)” value [1, 2] was 114.137 RLU and the “Maximal Response WT (RLU)” value (WT Jurkat cells; [3]) was 70.455 RLU.
`O=c1c(-c2ccc(O)cc2)coc2c([C@@H]3O[C@H](CO)[C@@H](O)[C@H](O)[C@H]3O)c(O)ccc12` [Puerarin] was tested, and the “Maximal Response CD47 KO (RLU)” value [1, 2] was 110.056 RLU and the “Maximal Response WT (RLU)” value (WT Jurkat cells; [3]) was 12.378 RLU.
`CC(C)[C@H](NS(=O)(=O)c1ccc(-c2ccc(Br)cc2)cc1)C(=O)O` [PD-166793] was tested, and the “Maximal Response CD47 KO (RLU)” value [1, 2] was 46.846 RLU, the “Δ Maximal Response CD47KO-WT” value [1, 5] was 36.456 and the “Maximal Response WT (RLU)” value (WT Jurkat cells; [3]) was 10.39 RLU.
